Experimental data as given in ChEMBL document CHEMBL4888484, “Replenishing the malaria drug discovery pipeline: Screening and hit evaluation of the MMV Hit Generation Library 1 (HGL1) against asexual blood stage Plasmodium falciparum ,using a nano luciferase reporter read-out” (2022).
In all, about 150,000 compounds went through this assay and about 540 (0.36%) showed an effect of 50% or more. Some of the results follow.

Each molecule was assayed on Plasmodium falciparum (assay: Primary screen in NF54 nanoGlo assay, in single point, at 2uM, 72h; a lower Z score goes with more inhibition). Details: timepoint 72 hour.
Assay type: functional, Erythrocyte

| Compound | % Inhibition [%] | Z score |
| --- | --- | --- |
| Cc1ccnc([C@H]2CCN(C(=O)c3cc(C)ccc3F)C2)c1 | -16 | 3.21 |
| COC(=O)c1cncc(C(=O)NCCC2CC3CCC2C3)c1 (centres undefined) | -11 | 1.13 |
| CC(=O)c1cccc(NC(=O)C2CCN(C(=O)c3ccc4c(c3)nnn4C3CCCC3)CC2)c1 | -20 | 3.59 |
| N#Cc1ccccc1C(=O)N1CCN(C2CCCCC2)C[C@H](O)C1 | -20 | 1.76 |
| Cc1nnsc1C(=O)N(C)C1CCN(Cc2ccccc2)CC1C (centres undefined) | 2 | -0.26 |
| COc1ccnc(C(=O)Nc2cccc(-c3cnc[nH]3)c2)c1 | -4 | 0.45 |
| COC(=O)[C@@H]1CS(=O)(=O)CCN1C(=O)c1ccc(Cl)cc1 | -22 | 2.24 |
| CN(c1nccnc1C#N)[C@H]1CCCN(Cc2ccccc2)C1 | 0 | 0.03 |
| CCc1nc(C2CC2)nc(N2CCN(C(=O)c3ccco3)CC2)c1Cc1cc(C)ccc1C | 5 | -0.81 |
| O=C(NCc1nc2c(s1)CCCC2)c1cn(C[C@H]2CCCO2)nn1 | -10 | 1.33 |
| COc1ccccc1C(C)CNC(=O)NC1CCC(N(C)C)C1 (centres undefined) | -12 | 1.6 |
| Cc1cc(C)n(C)c(=O)c1C(=O)N1CC[C@@](O)(C2CCOCC2)[C@H](C)C1 | -23 | 2.7 |
| O=C1CCc2cc(Cl)c(S(=O)(=O)N3CCC(C(=O)Nc4ccc(Cl)cn4)CC3)cc2N1 | -3 | 0.54 |
| CCCc1nn(-c2cccc(F)c2)c(N2CCN(CC)CC2)c1CN(CCC)Cc1ccccc1F | -18 | 1.55 |
| C[C@@H](CCNC(=O)OC(C)(C)C)NC(=O)c1cccnc1 | 13 | -1.57 |
| C[C@@H](CNC(=O)Cc1cccc(O)c1)COCc1ccccc1 | 10 | -1.91 |
| CCOc1c(Cl)cccc1Cc1nc(CC(=O)NC)no1 | -9 | 1.07 |
| Cn1nnc2c(=O)n(Cc3ccccn3)cnc21 | -1 | 0.22 |
| CCc1noc(C)c1C(=O)N(Cc1ccccc1)c1c(N)n(CCOC)c(=O)[nH]c1=O | -3 | 0.3 |
| CN(C)c1cccc(Oc2nnnn2[C@H]2CO[C@H]3[C@@H]2OC[C@@H]3NS(=O)(=O)c2cccs2)c1 | -3 | 0.41 |
| COc1ccc(CNS(=O)(=O)c2cc3n(c2)CCCN(C(C)C)C3=O)cc1OC | -18 | 2.06 |

| Compound | % Inhibition [%] | Z score |
| --- | --- | --- |
| CC1(C)COCCN1CCNC(=O)N1CC=C(c2ccccc2F)CC1 | -8 | 1.1 |
| Cc1cc(Cl)ccc1-c1cccc(C(=O)NCC2(O)CCN(C)CC2)c1 | -7 | 0.86 |
| CCn1nc(CO)c2c1CCN(C(=O)C[C@H]1CCOC1)C2 | -3 | 0.6 |
| O=C(O)C[C@@H]1N=C(O)N(Cc2ccccc2)C1=O | 7 | -0.95 |
| CC1CN(C(=O)Nc2ccnn2C2CCS(=O)(=O)C2)c2ccccc21 (centres undefined) | 6 | -1.01 |
| COc1ncnc2c1CN(C(=O)NC1CC1C1CCCCC1)CC2 (centres undefined) | -17 | 2.21 |
| Cc1occc1CNC(=O)c1ccc(CNC(=O)OC(C)(C)C)o1 | -8 | 1.46 |
| Cc1nnsc1C(=O)NCc1cnc(CC(C)C)s1 | -5 | 0.74 |
| CCCc1nc(CN2CC(n3cccn3)C2)cs1 | 8 | -1.58 |
| CC(=O)c1cccc(NC(=O)CN(C(C)C)C2CCOCC2)c1 | -1 | 0.11 |
| COC(=O)C[C@H]1CN(Cc2ccc(-c3ccncc3)cc2F)CCO1 | -7 | 0.94 |
| O=C1C[C@@H](c2ccccc2)N(C(=O)C#Cc2ccccc2)CCN1 | -8 | 0.95 |
| Cc1cc(Cl)cc2c(N3C[C@@H]4C(=O)NC[C@]4(C(=O)O)C3)ccnc12 | -6 | 1.26 |
| CC(C)=CC1C(C(=O)N2CCC(CC(N)=O)CC2)C1(C)C (centres undefined) | -10 | 1.34 |
| CCN(Cc1ccoc1)Cc1nnc(-c2ccc(F)cc2)o1 | -13 | 1.6 |
| CCN(CCN1C(=O)NC(C)(C)C1=O)Cc1cccc(Cl)c1 | -20 | 3.25 |
| CCOC(=O)[C@H]1CCCN1Cc1nnc(-c2ccc(Cl)cc2)n1C | -6 | 0.57 |
| Cc1cnn(CCC(=O)N[C@@H]2COCC[C@@H]2Oc2ccc(C)nc2)c1 | -1 | 0.12 |
| O=C(C1CCCC1)N1CCN(Cc2nnn3c2CO[C@H](c2ccccc2)C3)CC1 | -3 | 0.34 |
| CCN1CCN(C(=O)c2ccc(CN3CCN(C(C)C)C(=O)C3=O)cc2)CC1 | 2 | -0.37 |
| COc1ccc(-n2nc(C(=O)N3CCN(c4ccccc4)CC3)c(=O)cc2OC)cc1 | 32 | -0.28 |
